Laboratory results as given in the supplement of paper PMC8728848.
This is one part of the list.

Legend:
Assay in all cases: glycan array binding signal (z-score within array); higher = stronger binding
Settings in all cases: glycan notation: IUPAC condensed, linker removed; mutation: G182A
[1] = target: Neu5Ac(a2-3)Gal(b1-4)[Fuc(a1-3)]GlcNAc(b1-3)GalNAc
Method in brief: (§1)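 The Consortium for Functional Glycomics database supplied 3228 glycan arrays, of which those lacking an available protein sequence were dropped. The binding signal, a within-array Z-score, was averaged across arrays of the same protein sequence and across linkers. Negative scores can be read as non-binding.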

[2] = target: Neu5Ac(a2-3)Gal(b1-4)[Fuc(a1-3)]GlcNAc(b1-6)[Gal(b1-3)]GalNAc
Method in brief: as §1

[3] = target: Neu5Ac(a2-3)Gal(b1-4)[Fuc(a1-3)]GlcNAc(b1-6)[Neu5Ac(a2-3)Gal(b1-3)]GalNAc
Method in brief: as §1

[4] = target: Neu5Ac(a2-3)Gal(b1-4)[Fuc(a1-3)]GlcNAc6S
Method in brief: as §1

[5] = target: Neu5Ac(a2-3)Gal6S(b1-4)GlcNAc
Method in brief: as §1

[6] = target: Neu5Ac(a2-3)Gal6S(b1-4)[Fuc(a1-3)]GlcNAc
Method in brief: as §1

Neu5Ac(a2-3)GalNAc = target: Neu5Ac(a2-3)GalNAc
Method in brief: as §1

[7] = target: Neu5Ac(a2-3)GalNAc(b1-4)GlcNAc
Method in brief: as §1

[8] = target: Neu5Ac(a2-3)[GalNAc(b1-4)]Gal(b1-4)Glc
Method in brief: as §1

[9] = target: Neu5Ac(a2-3)[GalNAc(b1-4)]Gal(b1-4)GlcNAc
Method in brief: as §1

[10] = target: Neu5Ac(a2-3)[GalNAc(b1-4)]Gal(b1-4)GlcNAc(b1-3)GalNAc
Method in brief: as §1

[11] = target: Neu5Ac(a2-3)[Neu5Ac(a2-6)]GalNAc
Method in brief: as §1

Neu5Ac(a2-6)Gal = target: Neu5Ac(a2-6)Gal
Method in brief: as §1

Neu5Ac(a2-6)Gal(b1-4)Glc = target: Neu5Ac(a2-6)Gal(b1-4)Glc
Method in brief: as §1

[12] = target: Neu5Ac(a2-6)Gal(b1-4)GlcNAc
Method in brief: as §1

[13] = target: Neu5Ac(a2-6)Gal(b1-4)GlcNAc(b1-2)Man(a1-3)Man(b1-4)GlcNAc(b1-4)GlcNAc
Method in brief: as §1

[14] = target: Neu5Ac(a2-6)Gal(b1-4)GlcNAc(b1-2)Man(a1-3)[Gal(b1-4)GlcNAc(b1-2)Man(a1-6)]Man(b1-4)GlcNAc(b1-4)GlcNAc
Method in brief: as §1

[15] = target: Neu5Ac(a2-6)Gal(b1-4)GlcNAc(b1-2)Man(a1-3)[GlcNAc(b1-2)Man(a1-6)]Man(b1-4)GlcNAc(b1-4)GlcNAc
Method in brief: as §1

[16] = target: Neu5Ac(a2-6)Gal(b1-4)GlcNAc(b1-2)Man(a1-3)[GlcNAc(b1-2)Man(b1-4)GlcNAc(b1-2)Man(a1-6)]Man(b1-4)GlcNAc(b1-4)GlcNAc
Method in brief: as §1

[17] = target: Neu5Ac(a2-6)Gal(b1-4)GlcNAc(b1-2)Man(a1-3)[Man(a1-6)]Man(b1-4)GlcNAc(b1-4)GlcNAc
Method in brief: as §1

[18] = target: Neu5Ac(a2-6)Gal(b1-4)GlcNAc(b1-2)Man(a1-3)[Neu5Ac(a2-6)Gal(b1-4)GlcNAc(b1-2)Man(a1-6)]Man(b1-4)GlcNAc(b1-4)GlcNAc
Method in brief: as §1

[19] = target: Neu5Ac(a2-6)Gal(b1-4)GlcNAc(b1-2)Man(a1-6)Man(b1-4)GlcNAc(b1-4)GlcNAc
Method in brief: as §1

[20] = target: Neu5Ac(a2-6)Gal(b1-4)GlcNAc(b1-2)Man(a1-6)[Gal(b1-4)GlcNAc(b1-2)Man(a1-3)]Man(b1-4)GlcNAc(b1-4)GlcNAc
Method in brief: as §1

[21] = target: Neu5Ac(a2-6)Gal(b1-4)GlcNAc(b1-2)Man(a1-6)[GlcNAc(b1-2)Man(a1-3)]Man(b1-4)GlcNAc(b1-4)GlcNAc
Method in brief: as §1

[22] = target: Neu5Ac(a2-6)Gal(b1-4)GlcNAc(b1-2)Man(a1-6)[Man(a1-3)]Man(b1-4)GlcNAc(b1-4)GlcNAc
Method in brief: as §1

[23] = target: Neu5Ac(a2-6)Gal(b1-4)GlcNAc(b1-3)Gal(b1-3)GlcNAc
Method in brief: as §1

[24] = target: Neu5Ac(a2-6)Gal(b1-4)GlcNAc(b1-3)Gal(b1-4)GlcNAc
Method in brief: as §1

[25] = target: Neu5Ac(a2-6)Gal(b1-4)GlcNAc(b1-3)Gal(b1-4)GlcNAc(b1-3)Gal(b1-4)GlcNAc
Method in brief: as §1

[26] = target: Neu5Ac(a2-6)Gal(b1-4)GlcNAc(b1-3)Gal(b1-4)[Fuc(a1-3)]GlcNAc(b1-3)Gal(b1-4)[Fuc(a1-3)]GlcNAc
Method in brief: as §1

[27] = target: Neu5Ac(a2-6)Gal(b1-4)GlcNAc(b1-3)GalNAc
Method in brief: as §1

[28] = target: Neu5Ac(a2-6)Gal(b1-4)GlcNAc6S
Method in brief: as §1

Neu5Ac(a2-6)GalNAc = target: Neu5Ac(a2-6)GalNAc
Method in brief: as §1

[29] = target: Neu5Ac(a2-6)GalNAc(b1-4)GlcNAc
Method in brief: as §1

[30] = target: Neu5Ac(a2-6)GlcNAc(b1-4)GlcNAc
Method in brief: as §1

[31] = target: Neu5Ac(a2-6)GlcNAc(b1-4)GlcNAc(b1-4)GlcNAc
Method in brief: as §1

Neu5Ac(a2-8)Neu5Ac = target: Neu5Ac(a2-8)Neu5Ac
Method in brief: as §1

[32] = target: Neu5Ac(a2-8)Neu5Ac(a2-3)Gal(b1-4)Glc
Method in brief: as §1

[33] = target: Neu5Ac(a2-8)Neu5Ac(a2-3)[GalNAc(b1-4)]Gal(b1-4)Glc
Method in brief: as §1

[34] = target: Neu5Ac(a2-8)Neu5Ac(a2-8)Neu5Ac
Method in brief: as §1

[35] = target: Neu5Ac(a2-8)Neu5Ac(a2-8)Neu5Ac(a2-3)Gal(b1-4)Glc
Method in brief: as §1

[36] = target: Neu5Ac(a2-8)Neu5Ac(a2-8)Neu5Ac(a2-3)[GalNAc(b1-4)]Gal(b1-4)Glc
Method in brief: as §1

[37] = target: Neu5Ac(a2-8)Neu5Ac(a2-8)Neu5Ac(a2-8)Neu5Ac(a2-3)[GalNAc(b1-4)]Gal(b1-4)Glc
Method in brief: as §1

[38] = target: Neu5Ac(b2-6)Gal(b1-4)GlcNAc
Method in brief: as §1

Neu5Ac(b2-6)GalNAc = target: Neu5Ac(b2-6)GalNAc
Method in brief: as §1

[39] = target: Neu5Ac9Ac(a2-3)Gal(b1-3)GlcNAc
Method in brief: as §1

[40] = target: Neu5Ac9Ac(a2-3)Gal(b1-4)GlcNAc
Method in brief: as §1

[41] = target: Neu5Ac9Ac(a2-6)Gal(b1-4)GlcNAc
Method in brief: as §1

[42] = target: Neu5Gc(a2-3)Gal(b1-3)GlcNAc
Method in brief: as §1

[43] = target: Neu5Gc(a2-3)Gal(b1-3)[Fuc(a1-4)]GlcNAc
Method in brief: as §1

Neu5Gc(a2-3)Gal(b1-4)Glc = target: Neu5Gc(a2-3)Gal(b1-4)Glc
Method in brief: as §1

[44] = target: Neu5Gc(a2-3)Gal(b1-4)GlcNAc
Method in brief: as §1

[45] = target: Neu5Gc(a2-3)Gal(b1-4)[Fuc(a1-3)]GlcNAc
Method in brief: as §1

[46] = target: Neu5Gc(a2-6)Gal(b1-4)GlcNAc
Method in brief: as §1

Neu5Gc(a2-6)GalNAc = target: Neu5Gc(a2-6)GalNAc
Method in brief: as §1

[47] = target: Neu5Gc(b2-6)Gal(b1-4)GlcNAc
Method in brief: as §1

B1: Gal 3 (Homo sapiens), P17931 (protein)
chain: MADNFSLHDALSGSGNPNPQGWPGAWGNQPAGAGGYPGASYPGAYPGQAPPGAYPGQAPPGAYHGAPGAYPGAPAPGVYPGPPSGPGAYPSSGQPSAPGAYPATGPYGAPAGPLIVPYNLPLPGGVVPRMLITILGTVKPNANILDFQRGNDVAFHFNPRFNENNRRVIVCNTKLDNNWAREERQSVFPFESGKPFKIQVLVEPDHFKVAVNDAHLLQYNHRVKKLNEISKLGISGDIDLTSASYTMI
With B1 the “glycan array binding signal (z-score)” value [1] was -0.162, the “glycan array binding signal (z-score)” value [2] was -0.188 and the “glycan array binding signal (z-score)” value [3] was -0.188. The “glycan array binding signal (z-score)” value [4] was -0.196, the “glycan array binding signal (z-score)” value [5] was -0.189 and the “glycan array binding signal (z-score)” value [6] was -0.194. The “glycan array binding signal (z-score)” value (Neu5Ac(a2-3)GalNAc) was -0.192, the “glycan array binding signal (z-score)” value [7] was -0.147 and the “glycan array binding signal (z-score)” value [8] was -0.189. The “glycan array binding signal (z-score)” value [9] was -0.191, the “glycan array binding signal (z-score)” value [10] was -0.195 and the “glycan array binding signal (z-score)” value [11] was -0.189. The “glycan array binding signal (z-score)” value (Neu5Ac(a2-6)Gal) was -0.176, the “glycan array binding signal (z-score)” value (Neu5Ac(a2-6)Gal(b1-4)Glc) was -0.183 and the “glycan array binding signal (z-score)” value [12] was -0.177. The “glycan array binding signal (z-score)” value [13] was -0.19, the “glycan array binding signal (z-score)” value [14] was -0.164 and the “glycan array binding signal (z-score)” value [15] was -0.196. For the same binder, the “glycan array binding signal (z-score)” value [16] was -0.136, the “glycan array binding signal (z-score)” value [17] was -0.191 and the “glycan array binding signal (z-score)” value [18] was -0.156. For the same binder, the “glycan array binding signal (z-score)” value [19] was -0.176, the “glycan array binding signal (z-score)” value [20] was -0.194 and the “glycan array binding signal (z-score)” value [21] was -0.123. For the same binder, the “glycan array binding signal (z-score)” value [22] was -0.17, the “glycan array binding signal (z-score)” value [23] was 0.189 and the “glycan array binding signal (z-score)” value [24] was 0.013. For the same binder, the “glycan array binding signal (z-score)” value [25] was 3.27, the “glycan array binding signal (z-score)” value [26] was -0.188 and the “glycan array binding signal (z-score)” value [27] was -0.143. The “glycan array binding signal (z-score)” value [28] was -0.184, the “glycan array binding signal (z-score)” value (Neu5Ac(a2-6)GalNAc) was -0.161 and the “glycan array binding signal (z-score)” value [29] was -0.191. For the same binder, the “glycan array binding signal (z-score)” value [30] was -0.189, the “glycan array binding signal (z-score)” value [31] was -0.191 and the “glycan array binding signal (z-score)” value (Neu5Ac(a2-8)Neu5Ac) was -0.188. For the same binder, the “glycan array binding signal (z-score)” value [32] was -0.185, the “glycan array binding signal (z-score)” value [33] was -0.138 and the “glycan array binding signal (z-score)” value [34] was -0.183. For the same binder, the “glycan array binding signal (z-score)” value [35] was -0.191, the “glycan array binding signal (z-score)” value [36] was -0.167 and the “glycan array binding signal (z-score)” value [37] was -0.192. For the same binder, the “glycan array binding signal (z-score)” value [38] was -0.159, the “glycan array binding signal (z-score)” value (Neu5Ac(b2-6)GalNAc) was -0.191 and the “glycan array binding signal (z-score)” value [39] was -0.197. The “glycan array binding signal (z-score)” value [40] was -0.185, the “glycan array binding signal (z-score)” value [41] was -0.189 and the “glycan array binding signal (z-score)” value [42] was -0.173. For the same binder, the “glycan array binding signal (z-score)” value [43] was -0.192, the “glycan array binding signal (z-score)” value (Neu5Gc(a2-3)Gal(b1-4)Glc) was -0.195 and the “glycan array binding signal (z-score)” value [44] was -0.181. The “glycan array binding signal (z-score)” value [45] was -0.193, the “glycan array binding signal (z-score)” value [46] was -0.189 and the “glycan array binding signal (z-score)” value (Neu5Gc(a2-6)GalNAc) was -0.182. The “glycan array binding signal (z-score)” value [47] was -0.19.
